Test results as given in the RNAGym collection of RNA variant scans (doi:10.7554/elife.90254).
Read counts are not given, so values of variants with three or more changes are uncertain.

B1: OR4K15 (parent)
chain: GUUAACGGUCAUAGGCCAUGGAAACUAGGAGCACCAUUUCGCUGCCAGUGAAGAAAUGAACAAAGAAAAUCUGGGCCAGGCAGGCAUCAAAAGAAAUAGUCUUGCGCUCAACCAGAAAGUCUGUAAUCAUUUUAAGGGUA

Variants of: B1
Assay: self-cleavage, relative activity (ratio to wild type); higher = more cleavage; in vitro, sequencing; the parent is a self-cleaving ribozyme

Variant	self-cleavage
U9C U49C A82G U100C	1.8
A90G U97C A111G U131C	0
A23G A114G A140G	0.23
U9C C46U A116G	1.23
A5G U26A A96G U133C	0.84
U19C U87C A110U U122C	0.54
U26A U37C A66G	1.63
A62U A98C U103C	1.52
A4G A90G A117G	0.62
A5G A24G A60G A126G	0.36
U3C A78U C85G A92U U120C U124C U131C	0.01
A4G A52G U100C	1.55
A5G A69G U100C	1.48
U2C U39C U120C	0.7
A5G A68G A117G	1.4
U2A A62U A78G A116G U127C	0.05
A68G G119A U122C	2.32
A5G U19C A54G U127C	0.6
G14C U38C A90G U100C A118G	1.92
A52U A94G A95G	2.05
U103C A129G A134G	0.55
A66U A92G U122C U132C	1.45
U37C U49C U108A A126G U131C G138U	0
C45U A69G A92G	1.15

Variant	self-cleavage
A24U A30G U37C U38C U49C U72A A94G U132A	0.23
A5G A54C A82U U87C	0.27
U38A A86G U87C U130C	0.9
G44U A54U A86G A89G	2.16
A69G A78G A118G U132C	0.14
A51G A59G A62G A69U	1.16
U39C A90G G106A	0.01
A60G A67U A69G	1.45
A23G A114G A140U	0.43
A66G A90U A96G U100C U122C	2.82
A5G U26A A116G	1.11
A5G U19A A33C A114G	1.02
A55G A90G U122C	0.21
A22G U37C U43A A94G	1.18
A13U A60G A64G A95G U127A	1.69
A54G A59U U72A	0.28
U2C A51U U130C	1.35
A13U U57C A86G A96G U122C	0.42
A60G U103C C121A U124C A126G	1.26
G14U A27G A60G	1.31
A22G U100C A126C	1.5
A24G G44A U100C C105G U131C	0
U2A A52G A89U	1.07
G7A A54G U130C	0.69

Variant	self-cleavage
A60G A78G C128A	0.12
U72A A78G A91G U124C	0.02
A86G A117G A129G A135U	1.5
U9C U49C A62G U97C A125G	0.31
A64G U72C A94G A126U	0.2
A18G C32A A126U	1.11
G8C U43C A60G	1.56
A23G A27G U39C A62G	0.81
U43C A110U U124C	0.62
A11G U19C A23G A33G A52U	0.73
U19C A47C A92G A118G U120C	0.48
G7A U87C A116G	0.37
G15U A22G U43A A62G U70A A110C A117G U139A	0.1
A18G A51G C85G	0.4
A47G A78U A111G	0.01
A4U A55G A67G A117G	1.65
A18U A24G U87C U100C U127C	1.73
C10U A54G A55U	0.6
C17U A22G A59G A92G A126G	1.24
A11G A62U U87C	1.2
A36U A86G A89G	0.63
U57C A67G U120C	0.37
A59U A90G A94U U131C	0.2
A78U A94G U120C	0.24

Variant	self-cleavage
A52G U87C U97C U100C	1.93
U43G A51G A63G A78U	0.82
A18G U19C A23G A68G	0.77
A18U A54G U57C A66G	2.08
U12C A56G U70C A92G	1.17
U87C A94G A96G	1.41
U2C U38C A56G	1.2
A22U A33G C88U	1.09
G83U U102G A125G A135G	0.32
U9A U26A U37C U97C A118G U133C	1.62
U3A A96G U102C	1.42
A30G A64G A135U	1.49
A27G U70C A94G A118U U122C	0.12
A55G A117G U131C	2.29
U38A A52G A86G A117G	1.38
A11G U70C U127G	0.91
A18G G65A A68G	0.67
C34U A47G U49C A52G	1.28
A52G A63C U131C	1.4
U43C A114G A125G	0.04
U19A A23G C76U A114G U132C	0.18
A56G A66G A92U A135G	0.74
A24G A92G A111U	0.15
A92U A95G U120C	1.49

Variant	self-cleavage
G28A G93A U130C	2.33
A23U U43C U70C A90G	0.3
A60G A69G A78U U100A	0.04
A18G G48U A51U	1.65
A11G A23G U39C U72C	0.19
A47G G75U U139C	0.12
A54G A63G A86G	1.95
U38G A67G A78U U102C A118G	1.06
A22G A82U A118U	0.04
A30G U132G A135G	1.03
A95G A111G A140G	0.01
A64G A66G U87A U120G	1.72
U38A A55G A78G U87A U102C	0.39
G8A A22G A62G U130G U132C	0.97
A23G U43C U122A	0.84
A56G U70G A78U	0.1
A33U G58A U100A	0.39
U72C A78G A111G U130C	0
G31A A62C A82G A94G	0.64
A30G A56G A60G A67G A94G U102C U127C	0.99
A24G U26A U70C	0.49
A54G A66G A82G A129G	0.37
U38C A68G A92G A110G	0.62
U49A U57C A86G U132C	0.97

Variant	self-cleavage
A18C U39C A64G A95G	1.6
U3A A52G A63G U102C	0.61
U9A U19C A60U A64G A69G	0.9
A23G A110G A135G	0.11
U3A U97C A116G U131A	0.37
A18G A91G A117G	1.6
A51G A59G U70C	0.53
A52U A62G G80C U100C A117U	0
U39C C40U A55G A59G	0.58
A91G U108C G138C	0
A30G A64G A82G U87C A90G	0.1
G44A A60G A86G	0.87
U9C A23U A125G	0.86
A11G A96G A116G	0.1
A23G U37C A125G	0.45
A24C A56G A68G	1.14
A68G A96G U97C U108C	0.02
U37C A52G A56G	0.34
A51G A94G C121U	1.62
C16U U87A A118G	0.76
A33C U102A A117G U120C	0.24
U43C A47G A52G A96G	0.53
U9G A13G A96G	0.73
G28U U39C A90U A117G	2.71

Variant	self-cleavage
A33G A52G A56G A96G A126G	0.57
U3A U70C A89G A96U U102C	0.56
A60U A116U U127C	0.04
A33G A91U U102C	2.38
A4G A52G A96G U131C	0.94
A59G A60G A92G	1.47
A63G A82U A89G	0.15
U57C A110G A114C	0.02
U2C A23G A59G	1.05
U9A U43A U127A	1.43
U3C G8A A59G A63G A69U U103A	1.06
A23G A110G U131C	0.08
A18G A63G A82U U131C	0.12
A13U A24G A62U C113U	0.08
C17A A23G A110U	1.11
A47G A62G U103C U120C G137U	0.21
A60U A68U A98G U122C	0.43
C45A U87C A111G A125U A140G	0.01
G20C A60G C121A	1.76
A33G A59U A117G	1.19
A5G A47U A116U	0.24
A30G A78U A82G U100A	0.04
C88U U102C U108C	0.01
